From article PMC4336329 (PLoS ONE, 2015)
Out of some 310,000 compounds screened, about 14,000 (4.5%) showed an effect of 50% or more. The effect is printed as a negative number. The list shows a part of the results.

Molecular target: human ether-à-go-go-related gene (hERG) potassium channel (human, UniProt Q12809)
Assay: primary screen, population patch clamp on CHO cells stably expressing hERG
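Also: peak tail current of the secondary pulse compared with the same well before compound.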

Sequence of human ether-à-go-go-related gene (hERG) potassium channel (Q12809 whole entry, looked up): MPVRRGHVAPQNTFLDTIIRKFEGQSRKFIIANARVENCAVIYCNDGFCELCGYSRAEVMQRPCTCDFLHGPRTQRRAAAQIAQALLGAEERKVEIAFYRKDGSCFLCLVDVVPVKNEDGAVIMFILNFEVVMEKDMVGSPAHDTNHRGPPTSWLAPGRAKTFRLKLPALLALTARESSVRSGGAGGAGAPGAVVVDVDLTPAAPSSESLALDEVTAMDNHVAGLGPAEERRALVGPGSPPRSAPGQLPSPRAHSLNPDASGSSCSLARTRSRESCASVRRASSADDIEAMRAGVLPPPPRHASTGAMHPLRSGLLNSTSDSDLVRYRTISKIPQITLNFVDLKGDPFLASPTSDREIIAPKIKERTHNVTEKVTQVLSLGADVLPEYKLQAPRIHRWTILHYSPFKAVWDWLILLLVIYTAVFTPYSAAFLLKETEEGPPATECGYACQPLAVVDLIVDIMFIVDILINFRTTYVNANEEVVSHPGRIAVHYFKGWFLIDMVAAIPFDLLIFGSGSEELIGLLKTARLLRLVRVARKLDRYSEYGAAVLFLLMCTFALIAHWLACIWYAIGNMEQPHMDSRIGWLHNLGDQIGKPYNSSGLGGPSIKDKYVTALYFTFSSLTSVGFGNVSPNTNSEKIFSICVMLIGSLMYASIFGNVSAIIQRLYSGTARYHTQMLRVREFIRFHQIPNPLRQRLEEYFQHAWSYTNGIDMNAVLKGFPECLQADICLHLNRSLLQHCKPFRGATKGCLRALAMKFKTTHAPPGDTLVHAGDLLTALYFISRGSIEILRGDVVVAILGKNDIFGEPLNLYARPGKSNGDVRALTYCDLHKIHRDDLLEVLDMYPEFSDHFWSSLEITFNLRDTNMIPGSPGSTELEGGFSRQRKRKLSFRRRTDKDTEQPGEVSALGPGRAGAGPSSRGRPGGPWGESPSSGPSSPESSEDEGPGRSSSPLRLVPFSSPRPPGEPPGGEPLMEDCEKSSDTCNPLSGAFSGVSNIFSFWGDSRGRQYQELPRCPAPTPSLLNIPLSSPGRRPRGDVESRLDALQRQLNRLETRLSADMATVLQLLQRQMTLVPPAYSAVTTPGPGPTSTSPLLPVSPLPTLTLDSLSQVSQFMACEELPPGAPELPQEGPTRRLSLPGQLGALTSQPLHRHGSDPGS

| Compound | hERG current change (%, negative = inhibition) at 10uM [%] |
| --- | --- |
| COc1ccc(-c2nc3n(c(=O)c2C#N)CCS3)cc1OC | -2.65 |
| CN(C(=O)CCn1c(=S)oc2ccccc21)C1CCCCC1 | -14.5 |
| N#Cc1c(C(F)(F)F)cc(=O)n2c1[nH]c1ccccc12 | 22.4 |
| CCOC(=O)Nc1ccc2c(c1)N(C(=O)CCN(C)C)c1ccccc1S2.Cl | -41.4 |
| COc1ccc(C2NC(c3ccc(OC)cc3)C(c3ccccc3)C(=O)C2c2ccccc2)cc1 (stereo not shown) | -17.7 |
| CCN(CC(=O)Nc1ccccc1C(=O)OC)S(=O)(=O)c1ccccc1 | -9.17 |
| COCC(=O)N(C)C1(c2nnnn2CCOC(=O)Nc2cccc3ccccc23)CCCC1 | 7.37 |
| Cc1ccc(S(=O)(=O)N/N=C(\c2ccccc2)C2CC2)cc1 | 9.49 |
| CC1CCC2C(=O)N(c3ccc(C(=O)Oc4cccc5cccnc45)cc3)C(=O)C2C1 (stereo not shown) | 0.202 |
| O=[N+]([O-])c1cccc(CN2[C@@H](Cc3ccccc3)COCCS2(=O)=O)c1 | -11.3 |
| Cc1cc(C)c(S(=O)(=O)c2cccc(Cl)c2)c(Cl)n1 | -2.46 |
| C=CCN(C(=O)c1cccc(S(=O)(=O)N2CCN(C)CC2)c1)c1nc(-c2ccccc2)cs1 | 12.6 |
| Cc1ccccc1NC(=O)Cc1nnc(SCC(=O)Nc2ccccc2)n1C | 2.67 |
| CCN(CC)c1ccc(/C=N/N2CCN(Cc3ccc(Cl)cc3)CC2)c(O)c1 | 9 |
| CC1CCCC(NC(=O)COC(=O)COc2ccc(Cl)cc2)C1C (stereo not shown) | 7.79 |
| CCOC(=O)N1CCN(c2nc(-c3ccco3)cc(C(F)(F)F)n2)CC1 | -3.17 |
| O=c1c2ccccc2n(CC(O)CN2CCOCC2)c2ccccc12 (stereo not shown) | -9.98 |
| O=C(NCCOc1ccc(Cl)cc1)c1cccc(S(=O)(=O)N2CCCC2)c1 | -51.8 |
| CCOc1ccc(-c2nnc(SCC(=O)NC(C)(C)C)nc2-c2ccc(OCC)c(OC)c2)cc1OC | -16.4 |
| COc1ccc(Nc2nc(C)cc(C)n2)cc1Cl.Cl | 0.588 |
| CC(NCC(=O)Nc1ccccc1C(=O)NC1CC1)c1ccc(S(C)(=O)=O)cc1 (stereo not shown) | -5.26 |
| CCOC(=O)c1sc(NC(=O)CSc2n[nH]c(-c3ccncc3)n2)c(C#N)c1C | 19 |

| Compound | hERG current change (%, negative = inhibition) at 10uM [%] |
| --- | --- |
| COc1ccc(N2C(=O)CSC2c2ccccc2F)c(OC)c1 (stereo not shown) | -4.16 |
| CCc1ccc(C(CNc2nc(C(F)(F)F)nc3ccccc23)N(C)C)cc1 (stereo not shown) | -28 |
| O=C1CC(N2CCN(c3ccc(Cl)cc3)CC2)C(=O)N1c1ccc(F)cc1 (stereo not shown) | 2.72 |
| CCc1ccc(C2(O)CC(C(F)(F)F)=NN2C(=O)Cc2ccc([N+](=O)[O-])cc2)cc1 (stereo not shown) | 13.3 |
| CCOC(=O)c1ccc(Nc2nc(C(=O)OCC)nc3ccccc23)cc1 | -6.6 |
| CC(=O)Nc1ccc(S(=O)(=O)N2CCC(NC(=O)C(Cc3cccc(F)c3)NC(C)=O)CC2)cc1 (stereo not shown) | 18.6 |
| O=C(Nc1ccccc1)Nc1ccc(Cl)c(S(=O)(=O)N2CCOCC2)c1 | 0.512 |
| CCOC(=O)Cc1csc(/N=C/c2c(O)n(-c3ccc(C)cc3C)c(=O)c3ccccc23)n1 | -6.7 |
| CC[C@@]12C(=O)N(c3cccc(F)c3)C(=O)N1[C@H](c1ccc(F)cc1)[C@@H]1C(=O)N(C3CCCCC3)C(=O)[C@@H]12 | 10.9 |
| CCOC1=C/C(=C/c2c(N)n3nc(S(=O)(=O)CC)sc3nc2=O)C=CC1=O | -31.3 |
| O=C(CCN1C(=O)/C(=C/c2ccc3c(c2)OCO3)SC1=S)Nc1ccc(C(=O)O)cc1 | 17.5 |
| O=C1C2C3C=CC(C3)C2C(=O)N1c1ccc(N2CCN(c3ccccn3)CC2)c([N+](=O)[O-])c1 (stereo not shown) | -18.6 |
| O=C(c1cc2nc(-c3ccco3)cc(C(F)(F)F)n2n1)N1CCN(c2ccccc2)CC1 | -12.1 |
| Cn1c(=O)c2c(ncn2CC(=O)Nc2cccc(S(=O)(=O)Nc3ccccc3F)c2)n(C)c1=O | 9.49 |
| CCOC(=O)C1C(C#N)=C(N)OC(C)=C1c1ccncc1 (stereo not shown) | -8.18 |
| COc1ccc(CC(=O)Nc2ccncc2Cl)cc1 | 15.8 |
| NCCCN1CCN(c2ccccc2)CC1 | -8.45 |
| Cc1cccc(C)c1OCCCn1ccnc1 | 23.6 |
| O=C(Cc1ccccc1)NNC(=O)C1CC=CCC1 (stereo not shown) | 19.5 |
| Cn1c2c(c(=O)n(C)c1=O)NC1(N2)C(=O)Nc2ccccc21 (stereo not shown) | 13.7 |
| CNC(=O)N(O)C1N(/N=C/c2ccccc2OC)C(=S)SC1(C)C (stereo not shown) | 0.348 |
| Cc1cc(C)c2c(c1)/C(=N/NS(=O)(=O)c1ccc(Br)cc1)CCC2 | -2.55 |

| Compound | hERG current change (%, negative = inhibition) at 10uM [%] |
| --- | --- |
| CCOC(=O)c1c(C)[nH]c(C)c1S(=O)(=O)N1CCN(C(=O)c2ccco2)CC1 | 16.5 |
| O=C(CN1C(=O)c2ccccc2S1(=O)=O)Nc1ccccn1 | -13 |
| CC1(C)Cc2c(cnn2-c2ccccc2)C(=O)/C1=N\NC(=O)c1ccccc1O | 1.23 |
| Cc1ccc(-c2noc(CN(C(=O)c3cccs3)C(C)C)n2)cc1 | 1.39 |
| Cc1ccccc1Nc1nnc(SCC(=O)Nc2ncc(C(F)(F)F)cc2Cl)s1 | -33.8 |
| Clc1c(-c2ccccc2)nnn1-c1ccccc1 | -2.21 |
| Cc1ccc(-c2cc3onc(-c4ccccc4)c3c(=O)n2C)cc1 | 4.05 |
| Cc1ccc(-c2nn3c(C)nnc3s2)cc1NC(=O)c1cccnc1 | -24.4 |
| CCNc1nc(NCc2ccccc2)nc(SCC(=O)Nc2ccccc2)n1 | 0.272 |
| CN1CCCN=C1/C=C/c1cccs1.O=C(O)C(O)C(O)C(=O)O | 9.07 |
| CC(C)C(CO)NC(=O)CC(=O)NC(CO)C(C)C (stereo not shown) | 3.54 |
| CCCCOc1ccc(C(=O)OCC(=O)N2CCOCC2)cc1 | -2.42 |
| Cn1c(CCNC(=O)c2cccs2)nnc1SCC(=O)N1CCN(c2ccccc2)CC1 | 15.8 |
| Cc1ccc(S(=O)(=O)NCC23C=CC(O2)C2C(=O)N(c4ccccc4)C(=O)C23)cc1 (stereo not shown) | 2.53 |
| C#CCNC(=O)C1=C[C@@H](C2CC2)[C@H](CCCO)[C@@H](OCC)O1 | 26.4 |
| COc1cccc(CNC(=O)C(=O)NCC2CCCO2)c1 (stereo not shown) | -6.32 |
| CCCc1cc(C(=O)Nc2ccc(C(=O)c3ccc(F)cc3)cc2)n(C)n1 | 1.41 |
| CCc1nnc(N2C(=N)SCC2=O)s1 | 28.3 |
| O=C1[C@H]2[C@@H](C(=O)N1c1cccc3ccccc13)C1(C(=O)c3ccccc3C1=O)N1CCC[C@@H]21 | -69 |
| O=C(Nc1ccc(Br)cc1)c1cc2ccccn2n1 | -9.23 |
| CCOc1cccc2cc(-c3csc(NC(=O)CCC(=O)NCCCN4CCC(C)CC4)n3)c(=O)oc12 | -44.6 |
| CCOC(=O)C1(CCOc2ccccc2)CCN(Cc2cc(OC)cc(OC)c2)CC1 | -79.8 |

| Compound | hERG current change (%, negative = inhibition) at 10uM [%] |
| --- | --- |
| CCN(CC1CCCN(CCc2cccc(F)c2)C1)C(=O)c1cc(C)oc1C (stereo not shown) | -66.8 |
| CN1/C(=C\C(=O)c2cccnc2)Sc2ccccc21 | 4.34 |
| COc1cc(C(=S)N2CCOCC2)cc(OC)c1OC(=O)c1ccc([N+](=O)[O-])cc1[N+](=O)[O-] | -4.69 |
| COc1ccc(NC(=O)COC(=O)[C@@H]2CCCN2C(=O)c2cccs2)c(OC)c1 | -27.5 |
| Cc1cc(F)ccc1S(=O)(=O)Nc1ccccc1C(=O)Nc1ccccc1-c1nc2ccccc2[nH]1 | 4.92 |
| CCCSc1cc(=O)n(-c2ccc(F)cc2)nc1C(=O)OCC | -3.54 |
| COc1ccc(NC(=O)CSc2nnc(-c3ccccn3)n2N)c(OC)c1 | 2.63 |
| CN(CCCCCCCCCCN(C)C(=O)Oc1cccc([N+](C)(C)C)c1)C(=O)Oc1cccc([N+](C)(C)C)c1.[Br-] | -1.08 |
| CCOC(=O)N1CCC(NS(=O)(=O)c2cc3c(cc2Cl)NC(=O)CO3)CC1 | -38.3 |
| O=C(NC1CCCCC1)c1cccnc1C(=O)O | 4.81 |
| COC(=O)c1cn(NC(=O)C2CCCO2)c(=O)c2ccccc12 (stereo not shown) | 15.5 |
| CC(=O)Oc1ccc(C(=O)NCCc2ccccc2)cc1 | 15.5 |
| Brc1ccc(CN2CC[C@H]3C=CCc4cccc(c43)C2)cc1 | 0.0241 |
| c1ccc(-n2cc(CN3CCCC3)c(-c3ccc4c(c3)OCO4)n2)cc1 | -73 |
| Cc1ccc(CSCc2ccc(C(=O)NCCCN3CCOCC3)o2)cc1 | -51.8 |
| CCc1cc(C(=O)NCC(c2cccs2)N2CCOCC2)sc1C (stereo not shown) | -14.1 |
| O=C(Nc1ccc(NC(=O)C2CC2)nc1)c1ccccc1F | 5.75 |
| Cc1ccc(-c2ccc(CCC(=O)O)n2C(C)C)cc1 | 9.59 |
| COc1ccc(-n2nc(C(=O)NCC(=O)N3CCC4(CC3)OCCO4)c3ccccc3c2=O)c(OC)c1 | 2.17 |
